Data from PubChem BioAssay AID686978 (National Center for Advancing Translational Sciences (NCATS), 2013).
Several values for one entry are separate records, joined by “and”; a condition that tells them apart may be missing. Equal values may be shown once. About 64,000 (15%) of roughly 420,000 compounds were called active. Inconclusive results, whose numbers are uncertain, are shown with a selection of clear calls. Calls follow the shape of the dose curve; as a rule, active = well fitted inhibition curve with a large enough effect; inconclusive = small, poorly fitted or top-dose-only effect; inactive = flat fitted curve, though single readings scatter. A potency beside an inconclusive call is a rough fit, not a confirmed value.

test: qHTS for Inhibitors of human tyrosyl-DNA phosphodiesterase 1 (TDP1): qHTS in cells in absence of CPT; conditions: DT40 Tdp1-/- hTDP1 cells, no CPT, ATP luminescence, 48 h; activity change, negative = growth inhibition: at 46.2 µM (top of the series); also: nearly all actives have a fitted effect of over 55% in size
Procedure, shortened: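 Cells were dispensed at 400 per well, compounds added by pin tool, plates incubated ≥48 hr at 37 °C, then CellTiter-Glo added for 30 min at room temperature before luminescence reading. Line: DT40 Tdp1-/- complemented with hTDP1; camptothecin omitted.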
% is scaled to controls: 0 for no effect and ±100 for the full control effect; potency is read from the fitted curve at half-maximal effect; tags tell the direction and shape of the fitted curve.

Compound | Potency | activity change, negative = growth inhibition
COC(=O)c1ccc(C(=O)OC)c(NC(=O)CSCc2ccccc2Br)c1 | inconclusive: 18.4 µM [inhibitor, single point] | –
Cc1ccc(C)c(S(=O)(=O)c2nnn3c2nc(NC(C)C)c2sccc23)c1 | inconclusive: 29.1 µM [inhibitor, single point] | –
O=C(O)c1ccc2nc(-c3cc4cccc(O)c4oc3=O)[nH]c2c1 | inconclusive: 18.4 µM [inhibitor, partial curve] | –
COC(=O)C1=C(COc2ccccc2)NC(=O)NC1c1ccc2ccccc2c1 (centres undefined) | active: 23.1 µM | –
CCS(=O)(=O)N1Cc2ccccc2CC1C(=O)NC(C)C12CC3CC(CC(C3)C1)C2 (centres undefined) | inconclusive: 25.9 µM [inhibitor, single point] | –
COc1ccc(Oc2ncc3nc(-c4cccc(C#N)c4)c(=O)n(C)c3n2)cc1 | – | inactive: 28%
COc1ccccc1N1CCN(C(=O)NCc2ccc(Cl)cc2)CC1 | inconclusive: 14.6 µM [inhibitor, partial curve] | –
NS(=O)(=O)c1ccc(NC(=O)CN2C(=O)COc3ccc(Cl)cc32)cc1 | – | inactive: -13.4%
O=C(CCCOC(=O)c1ccc(O)cc1O)c1ccc(Br)cc1 | active: 23.1 µM | –
Cc1cc(NC(=O)CC#N)n(-c2ccccc2)n1 | – | inactive: 8.75%
Cc1ccccc1-c1nc(CN(Cc2c(C)nn(C)c2C)C2CC2)c(C)o1 | active: 23.1 µM | –
Cc1ccnc(SC2CC(=O)N(c3ccccc3)C2=O)n1 (centres undefined) | inconclusive: 32.6 µM [inhibitor, single point] | –
COCCNc1oc(-c2ccccc2Cl)nc1S(=O)(=O)c1ccc(C)cc1 | inconclusive: 29.1 µM [inhibitor, single point] | –
CCCCCCNC(=O)O[C@]12C[C@@H](C(=O)OC)[C@@H](C(=O)OC)C[C@@]1(O)CN(S(=O)(=O)c1ccc(C)cc1)C2 | inconclusive: 20.6 µM [inhibitor, single point] | –
O=C(Nc1ccc(O)cc1)c1ccc2c(c1)C(=O)N(Cc1ccccc1)C2=O | inconclusive: 18.4 µM [inhibitor, single point] | –
COc1cc(C)nc2nc(SCc3ccccc3)nn12 | – | inactive: -14.4%
CC(C)C(c1nnnn1C1CCCC1)N(C)C1CCCCC1 (centres undefined) | inconclusive: 18.4 µM [inhibitor, single point] | –
COc1ccccc1Cn1cc(C(=O)c2ccc(C)cc2)c(=O)c2cc(C)ccc21 | active: 7.31 µM | –
COc1ccc(CNCc2c(O)c(Cl)cc3c(C)c(C)c(=O)oc23)c(OC)c1 | – | inactive: -1.88%
Cc1ccc(-n2nc(CO)c(C(=O)NCCCc3ccccc3)n2)cc1C | – | inactive: -23.7%
COc1ccc([N+](=O)[O-])cc1N(CC(=O)N1CCCCC1)S(C)(=O)=O | inconclusive: 29.1 µM [inhibitor, single point] | –
CCN(c1ccccc1)c1ccc2cc(S(=O)(=O)N3CCCC3)ccc2n1 | active: 20.6 µM | –
c1ccc(CCc2nn3c(Cn4cnc5ccccc54)nnc3s2)cc1 | active: 18.4 µM | –

Compound | Potency | activity change, negative = growth inhibition
O=[N+]([O-])c1ccc(N2CCN(CC3CCCCC3)CC2)cc1 | inconclusive: 20.6 µM [inhibitor, single point] | –
COc1ccccc1C=C1CCc2ccccc2C1=O | inconclusive: 18.4 µM [inhibitor, single point] | –
CCc1ccccc1Nc1nn2c(=O)c3ccc(C(=O)NCc4ccccc4OC)cc3nc2s1 | inconclusive: 29.1 µM [inhibitor, single point] | –
O=C1OC(CN2CCOCC2)CN1/N=C/c1ccc([N+](=O)[O-])o1 (centres undefined) | – | inactive: -24.7% [at 21.1 µM]
CC(C)Cn1cnc2c(SCCc3ccccc3)nc(N)nc21 | inconclusive: 18.4 µM [inhibitor, single point] | –
COc1ccc(/C=N/NC(=O)c2ccc(NC(C)=O)cc2)cc1COc1ccc(F)cc1F | – | inactive: -13.7%
COc1ccc(CN2CCC(Cc3ccccc3)CC2)cc1OC | inconclusive: 10.3 µM [inhibitor, partial curve] | –
O=C(O)C1CC=CCC1C(=O)NNc1c(Cl)cc(Cl)cc1Cl (centres undefined) | inconclusive: 13 µM [inhibitor, partial curve] | –
CCOc1ccc(NC(=O)CSc2ccc(-c3sc(-c4ccccc4)nc3C)nn2)cc1 | inconclusive: 25.9 µM [inhibitor, single point] | –
CCOCCCNCc1ccc(OCc2ccccc2C)c(OC)c1 | inconclusive: 18.4 µM [inhibitor, single point] | –
COc1ccc(C(C(=O)Nc2ccc3c(c2)OCCO3)n2c(=O)c(-c3cc4ccccc4[nH]3)nc3ccccc32)cc1 (centres undefined) | inconclusive: 16.4 µM [inhibitor, partial curve] | –
Cc1c(O)cc2n(c1=O)-c1ccccc1C2(C)C | – | inactive: -15.3%
O=C(COc1ccc(Cl)cc1Cl)N1CCN(C(=O)c2ccco2)CC1 | – | inactive: -10.2%
CN(CC1CCN(CCc2cccc(C(F)(F)F)c2)CC1)C(=O)c1ccc(F)cc1 | inconclusive: 9.2 µM [inhibitor, single point] | –
O=S(=O)(Nc1ccc(O)c(Sc2nc3ccccc3s2)c1)c1ccc(F)cc1 | inconclusive: 32.6 µM [inhibitor, single point] | –
CCOC(=O)c1[nH]c2ccc(F)cc2c1NC(=O)Nc1ccccc1OC | – | inconclusive: -33.4% [inhibitor]
Clc1ncccc1-c1nc2ccccc2n1Cc1ccccc1 | inconclusive: 16.4 µM [inhibitor, single point] | –
COc1ccc(-c2cn3cc([N+](=O)[O-])ccc3n2)cc1OC | inconclusive: 29.1 µM [inhibitor, single point] | –
CCc1nc2ccc(C(=O)Nc3cccc(OCC(=O)N(C)C)c3)cn2c1N(C)Cc1ccc(OC)cc1 | active: 18.4 µM | –
CC1CCN(CCc2nc3cc(NS(=O)(=O)c4ccccc4)ccc3n2C)CC1 | inconclusive: 29.1 µM [inhibitor, single point] | –
CCOC(=O)c1oc2ccc(S(=O)(=O)n3nc(-c4cc(OC)c(OC)c(OC)c4)cc3N)cc2c1C | inconclusive: 29.1 µM [inhibitor, single point] and inconclusive: 23.1 µM [inhibitor, partial curve] | –
Cc1cccc(Nc2nc3c(S(=O)(=O)c4ccccc4)nnn3c3ccccc23)c1 | – | inconclusive: -39.8% [inhibitor]
C[C@]12c3[nH]c4ccc(Cl)cc4c3CCN1C(=O)[C@@H](CC(=O)NCC13CC4CC(CC(C4)C1)C3)C[C@@H]2C(=O)N1CCOCC1 | active: 13 µM | –

Compound | Potency | activity change, negative = growth inhibition
C[C@H](CO)N1C[C@H](C)[C@@H](CN(C)C(=O)Nc2ccc3c(c2)OCO3)Oc2c(NS(=O)(=O)c3ccc(F)cc3)cccc2C1=O | – | inactive: -13.3%
COc1ccccc1N1CCN(C2CCCN(C(=O)c3ccnc4ccc(C)cc34)C2)CC1 (centres undefined) | – | inactive: -26.3%
O=C(NC(=S)N1CCCCCC1)c1cccc([N+](=O)[O-])c1 | active: 16.4 µM | –
CC(C)C(=O)Nc1ccccc1OCc1cc(=O)n2ccccc2n1 | – | inactive: -15%
Cc1ccc(S(=O)(=O)OCCC2=CC(=O)CCN2Cc2ccccc2)cc1 | inconclusive: 29.1 µM [inhibitor, single point] | –
CC1CCc2c(sc(NC(=O)CCC(=O)O)c2C(=O)NC2CC2)C1 (centres undefined) | – | inactive: -12.9%
O=C(O)c1cc(NC(=O)c2ccco2)cc(NC(=O)c2ccco2)c1 | – | inactive: -11.4%
CCN(CC)C(=O)[C@H]1C[C@H](CC(=O)NCCCOC)C(=O)N2CCc3c([nH]c4cc(CCC(=O)N(C)C)ccc34)[C@]12C | – | inactive: -8.83%
CCCC[C@@H]1CC2=C(C(=O)OC(C)(C)O2)[C@H](c2ccc(C(C)C)cc2)O1 | inconclusive: 23.1 µM [inhibitor, single point] | –
O=C(CSc1nc2ccccc2c(=O)n1-c1ccc(F)cc1F)Nc1ccc(N2CCOCC2)cc1 | active: 20.6 µM | –
Cc1ccc(NC(=O)c2cc(N3C(=O)C=CC3=O)ccc2Cl)cc1C | active: 4.61 µM | –
CC(=O)c1ccc(NC(=O)CC(C)S(=O)(=O)c2ccc3c(c2)CCN3C(C)=O)cc1 (centres undefined) | – | inactive: -3.98%
Cc1cc(C)cc(NC(=O)CN2C(=O)NC(Cc3c[nH]c4ccccc34)C2=O)c1 (centres undefined) | inconclusive: 16.4 µM [inhibitor, single point] | –
COc1ccc(Cl)cc1NC(=O)C1CCCN(c2ncnc3onc(C)c23)C1 (centres undefined) | active: 23.1 µM | –
CCOC(=O)Nc1cc(N)ncn1 | – | inactive: -8.33%
Cc1onc(-c2ccccc2Cl)c1C(=O)O/N=C(\N)c1ccc([N+](=O)[O-])o1 | active: 23.1 µM | –
Cc1cc2c3c([nH]c2cc1S(=O)(=O)N1CCC2(CC1)OCCO2)CCCC3=O | inconclusive: 1.84 µM [inhibitor, full curve, poor fit] | –
Cc1ccccc1NC(=S)N(CCc1c(C)[nH]c2ccc(F)cc12)Cc1cccnc1 | inconclusive: 29.1 µM [inhibitor, single point] | –
CCOc1ccc(NC(=O)COC(=O)c2ccc(S(=O)(=O)N3CCOCC3)cc2)cc1 | – | inactive: 7.77%
CC(C)C[C@H](NC(=O)N1CCn2c1nc1ccccc12)C(=O)NCc1ccccc1 | inconclusive: 23.1 µM [inhibitor, single point] | –
CC(=O)N1c2ccc(S(=O)(=O)NCCC(=O)NCc3ccc(F)cc3)cc2CC1C (centres undefined) | inconclusive: 29.1 µM [inhibitor, single point] | –
COc1ccccc1NC(=O)CSc1nc2nccnc2c(=O)n1Cc1cccs1 | inconclusive: 14.6 µM [inhibitor, partial curve] | –
CC1(Oc2cnc(Cl)c3ccccc23)CCN(Cc2ccc(OC(F)(F)F)cc2)C1 (centres undefined) | inconclusive: 25.9 µM [inhibitor, single point] | –
